# Results as given in the supplement of paper PMC12217912.
# The other results are listed elsewhere or left out. Sequences were assembled here from the parent chain. Inactive controls read about 0.05.
# B1: TEV protease; numbered along this chain (parent)
# chain: MGESLFKGPRDYNPISSSICHLTNESDGHTTSLYGIGFGPFIITNKHLFRRNNGTLVVQSLHGVFKVKDTTTLQQHLVDGRDMIIIRMPKDFPPFPQKLKFREPQREERICLVTTNFQTKSMSSMVSDTSCTFPSGDGIFWKHWIQTKDGQCGSPLVSTRDGFIVGIHSASNFTNTNNYFTSVPKNFMELLTNQEAQQWVSGWRLNADSVLWGGHKVFMVKPEEPFQPVKEATQL
# Variants of: B1
# Assay: raw area under fraction-flipped curve 0-4 h after induction (AUC4h, not background-subtracted), DNA-recorder readout of cleavage of the substrate (dimensionless); higher = more cleavage of the substrate by the protease variant
# Details: temperature: 34 °C; time window: 0-4 h after rhamnose induction
# Protocol: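 In vivo DNA recorder in E. coli TOP10(DE3) ΔrhaA at 34 °C. Each TEVp single-site mutant (parent TEVp 0) is paired with a single-site variant of the 7-mer TEVs (canonical ENLYFQ|S). The substrate sits between flexible linkers in a Bxb1-sfGFP-TEVs-SsrA fusion, so cleavage stabilises Bxb1 and speeds flipping of a recombination array, read by NGS. The value is the raw area under the fraction-flipped curve over 0-4 h after rhamnose induction (AUC4h), with ≥20 reads per time point. It is not background-subtracted; inactive controls average about 0.047.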
# 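Note: Bxb1 expression induced with 0.2% (w/v) L-rhamnose at OD600 near 0.5, cultures sampled hourly, flipped fraction per protease–substrate barcode pair counted by paired-end Illumina sequencing.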
Variant,area with substrate ENLAFQS,area with substrate ENLDFQS,area with substrate ENLFFQS,area with substrate ENLLFQS,area with substrate ENLMFQS,area with substrate ENLRFQS,area with substrate ENLCFQS,area with substrate ENLEFQS,area with substrate ENLHFQS,area with substrate ENLIFQS,area with substrate ENLKFQS,area with substrate ENLNFQS,area with substrate ENLQFQS,area with substrate ENLSFQS,area with substrate ENLTFQS,area with substrate ENLWFQS,area with substrate ENLGFQS,area with substrate ENLPFQS,area with substrate ENLVFQS
K216D,0.0685,0.0672,0.0674,0.0531,0.0394,0.0667,,,,,,,,,,,,,
F140R,0.0652,0.0688,0.0666,0.0682,0.0629,0.0629,0.0527,0.0715,0.0411,0.057,0.0619,0.0667,0.0598,0.0551,0.0618,0.0687,,,
R160D,0.0651,0.057,0.0886,0.0712,0.104,0.0868,0.0852,0.0552,0.0749,,0.076,0.0639,0.0618,0.0603,0.0589,0.0689,,,
R10K,0.0613,0.0643,0.099,0.0716,0.0609,0.105,0.0687,0.0722,0.0702,0.0726,0.0699,0.0644,,0.0644,,0.0589,0.0732,0.0625,0.0758
N24Q,0.071,0.0734,0.0762,0.0718,0.0654,,0.063,0.0617,,0.0649,0.0752,0.059,0.0729,0.0615,,,0.0905,0.0538,0.0659
N24D,0.0519,0.0599,0.0628,0.0403,0.0619,0.0713,0.0619,0.0519,0.067,,,0.0611,0.0553,0.0498,,0.0533,0.0651,0.0683,0.0608
E224H,0.0526,0.0686,0.0893,0.077,,0.0767,,0.0585,0.0614,0.0751,0.0748,0.0705,0.0718,0.0512,,,,,
H168Y,0.0562,0.069,,0.0546,,0.0608,0.0631,0.0594,0.0729,0.0618,0.0451,0.067,0.035,0.0603,,0.045,0.0716,0.0673,0.0605
M88G,0.0348,0.0464,0.0545,0.0408,0.052,0.051,,0.0354,0.0509,0.0752,,0.0427,0.0441,,,,,0.0463,
S32L,0.0618,0.0673,0.0369,,0.0896,0.0941,0.0669,0.0645,0.0561,0.0786,0.0789,0.0599,0.0781,0.0674,,0.0446,,0.0569,
A232N,0.042,0.0572,0.0887,,0.0774,0.1,,,0.0593,,0.0799,0.0715,0.07,0.0508,,,0.0654,0.0467,
E224Y,0.0648,,0.0775,,0.0559,0.0624,0.0684,0.0674,,0.0782,0.0802,,0.0973,0.0742,,0.0586,0.0585,0.0744,0.0653
